Data on 94 sequences can be found in the supplement of paper PMC3334620.

Whole data set: some 33,000 sequences, median “E-score (-0.5 to 0.5)” near -0.054, cut for the highest 2% near 0.39. The list shows a part of the results.

The target of this experiment is Ylr278c (UniProt Q05854). The experiment can be described thus: PBM E-score (8-mer binding enrichment) (E-score (-0.5 to 0.5)); higher = stronger / more preferred TF binding; most listed sequences are background and not binding sites. The note with it: protein concentration: 200 nM; construct: GST-DNA-binding domain. Summed up: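 GST-tagged yeast TFs (full-length or DNA-binding domain) were made by PURExpress in vitro transcription/translation and applied at about 100-200 nM to universal all-10-mer Agilent arrays. The arrays were made double-stranded by primer extension, on fresh or once-stripped slides. Bound protein was detected with fluorescent anti-GST, and scans were normalised with masliner. Each ungapped eight-base word, pooled with its reverse complement, received an E-score (modified Wilcoxon-Mann-Whitney statistic) from the Universal PBM Analysis Suite.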
Take ATAACGTG: the “PBM E-score” value is -0.147. Consider ACACTGGT, for which the “PBM E-score” value is -0.175. In the case of AATCCACC it was -0.153. As to GCTCCATA, the “PBM E-score” value is -0.175. For the sequence CGTGCTCC, the “PBM E-score” value amounted to 0.234. For the sequence ATTATCGG, the “PBM E-score” value turned out to be 0.333. Next, GGGAGTCA: -0.00639; ACCCCGGG: 0.404. As to GACAGAAC, the “PBM E-score” value is -0.0438. As for CTGCAAGA, the “PBM E-score” value was -0.177. As to ATAACCAT, the “PBM E-score” value is -0.0986. As for ACCCCATG, the “PBM E-score” value was determined as 0.0309. Take CAAAGAAA: the “PBM E-score” value is -0.141.

Turning to TTCCGGAA, the “PBM E-score” value was 0.467. As for GACTGACA, the “PBM E-score” value is -0.0362. In the case of AAATCCGT it was 0.362. Next, GACTCTCC: 0.181; AGAGTCCA: -0.207; ATTCGGTG: 0.125. Consider AAGCTACT, for which the “PBM E-score” value is -0.192.

As for CTACCGGC, the “PBM E-score” value was determined as 0.2. In the case of ACCTTGCG, the “PBM E-score” value was -0.089. In the case of CCGTTGCA it was 0.0458. In the case of ACGTGCAG it was -0.268; in that of GTTATGAA, -0.155. For the sequence CAATTGAA, the “PBM E-score” value was -0.0803.

On to ACCTACCG, for which the “PBM E-score” value is -0.0379. Regarding CGCTGAAG, the “PBM E-score” value came to 0.0104. Next, AACTCCTT: 0.14. With GAGTCATC, the “PBM E-score” value is -0.00515. Consider CTGGATGC, for which the “PBM E-score” value is -0.224. Next, ACCTCGCG: -0.0559; CTCTTTGA: -0.19. In the case of GCCACCCA it was -0.207; in that of ATCAATTG, -0.059.

As for ATGAAGGA, the “PBM E-score” value is -0.102. Turning to CCTGATGA, the “PBM E-score” value is -0.0926. In the case of AAGAATCG it was 0.205; in that of GACAACGC, 0.0243.

As for ACTTCGTA, the “PBM E-score” value is -0.0317. In the case of AGCGTCAG it was -0.279; in that of ACTTACCC, 0.0825. Turning to CCCACACA, the “PBM E-score” value was -0.192. Next, ACGACCTG: -0.242. For the sequence TAAGCCGA, the “PBM E-score” value was 0.28. Take AAGTGAGC: the “PBM E-score” value was -0.26. For GGGGATGA, the “PBM E-score” value worked out at 0.0109.

In the case of GTAAGCTA, the “PBM E-score” value was -0.0576. In the case of CAAACAAC it was -0.0522; in that of ATAAACCC, 0.105.

ACTTCTGA: the “PBM E-score” value was -0.171. In the case of ACTACCTC it was 0.00874; in that of AATTTAAG, -0.0792. In the case of AATTCCAG it was 0.103. Regarding CATCCTCA, the “PBM E-score” value is -0.0435. For CAGTGATA, the “PBM E-score” value was -0.055. In the case of ACATGTCC it was 0.199.

In the case of AAAAGCTT, the “PBM E-score” value is -0.0605. In the case of CAGTACAA, the “PBM E-score” value is -0.131. Consider GTACGGGA, for which the “PBM E-score” value came to 0.019. In the case of AATCTCAC it was -0.174. For CCATTGGG, the “PBM E-score” value was -0.287.

For GGCAGTAC, the “PBM E-score” value was -0.111.

Consider ATTTCAAG, for which the “PBM E-score” value was -0.115. Next, AAGAGAGA: -0.321; GCCGGTAC: 0.242; GTATACAA: 0.00253. In the case of GCGCATCC it was 0.136; in that of ATACTTGG, -0.252; in that of GGGGAGTA, 0.0376. In the case of AATGGGTG it was -0.0286; in that of ATCTATGG, -0.0799; in that of GTGTCAAA, -0.0809. Turning to AAAGGCCG, the “PBM E-score” value was 0.37. Next, ACGAGACA: -0.0328; ACTGTTCT: -0.104; CATTAACC: 0.0637.

Regarding ATCAGTCG, the “PBM E-score” value was -0.025.

As to CCTACGTC, the “PBM E-score” value is -0.0729. Next, ATGAATTA: -0.228. On to AAAACCAA, for which the “PBM E-score” value is -0.129. Next, ATTCACTC: 0.0175; CATTCCCG: 0.29.

Take GAATACAA: the “PBM E-score” value was found to be 0.101. Next, AGCGAAAT: 0.0364; GCGAAAGA: -0.141; GACAAAAA: 0.124. Next, CGTTGCGC: 0.0941. Regarding ATTGGCTC, the “PBM E-score” value was -0.0867. As for CGAAGGTC, the “PBM E-score” value was determined as 0.0563. As for ATCGGGGG, the “PBM E-score” value was found to be 0.209.

For the sequence ACGCCCTC, the “PBM E-score” value stood at 0.138. Next, AATGATCA: -0.218.

Consider GCATTCGC, for which the “PBM E-score” value is -0.0626.
